We go through 48 molecules from PubChem BioAssay AID1508642 (National Center for Advancing Translational Sciences (NCATS), 2021).

Hit rate of the full screen: of about 43,000 compounds, about 200 (0.47%) were called active. Another 12% or so got no clear call; they are omitted. Calls follow the shape of the dose curve; as a rule, active = well fitted cell-killing curve with a large enough effect; inconclusive = small, poorly fitted or top-dose-only effect, or effect the other way; inactive = flat fitted curve, though single readings scatter. The list shows a part of the results.
% is scaled to controls: 0 for no effect and ±100 for the full control effect; potency is read from the fitted curve at half-maximal effect.

The experiment is described as follows: Cell viability qHTS assay in S16 Pmp22-F2sN cells. Also: nearly all actives have a fitted effect of over 65% in size. To be noted: S16 Pmp22-F2sN Schwann cells viability, CellTiter-Glo, 24 h; series mostly up to 57.5 µM; activity change, negative = cytotoxicity: at the top concentration. The essentials:
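Used to flag compounds lowering reporter output through toxicity, this quantitative HTS measures ATP-based CellTiter-Glo luminescence in S16 Pmp22-F2sN Schwann cells after 24 h compound exposure at 37C.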
Background: In qHTS, concentration-response curves come from the screen itself.
On to `CCN(C(=O)Cn1c(=O)oc2cc(Cl)ccc21)c1cccc(C(F)(F)F)c1`, for which the “activity change, negative = cytotoxicity” value is inactive: 0.403%.
Still for that read-out and setting: in the case of `COc1ccc(/C=C/C(=O)Nc2nc3n(n2)C(c2ccccc2)C=C(c2ccccc2)N3)cc1` (stereo not drawn) it was inactive: 0.574%.
Turning to `Cc1ccc(-c2cnc(NCc3ccc(C(F)(F)F)cc3)n2C)cc1`, the “activity change, negative = cytotoxicity” value was inactive: 6.55%.
Still for that read-out and setting: in the case of `CCOC(=O)c1cc2c(=O)n3ccccc3nc2n(CC(C)C)c1=NC(=O)c1cc2ccccc2o1` it was inactive: -2.94%; in that of `Cc1ccc(S(=O)(=O)c2cn(Cc3ccc(F)cc3)c3cc(F)c(F)cc3c2=O)cc1`, inactive: 4.1%.
Regarding `CCOCCn1ccc2c(OCC(=O)Nc3ccc(OC(F)(F)F)cc3)cccc2c1=O`, the “activity change, negative = cytotoxicity” value was inactive: -3.76%.
The same measure, in the same setting: under `O=C(CN1C(=O)CC(c2ccccc2)Sc2ccccc21)Nc1cccc(Cl)c1` (stereo not drawn) stands inactive: 22.7%; under `CC(=O)c1cccc(NC(=O)CCS(=O)(=O)c2ccc(Br)s2)c1`, inactive: -2.77%; under `Cc1ccc(Cl)cc1Nc1sc(C(=O)c2ccccc2)c(N)c1S(=O)(=O)c1ccccc1`, inactive: -0.338%.
Take `Cc1ccc(Nc2cc(C(=O)NC3CCCC3)c3ccccc3n2)c(C)c1`: the “activity change, negative = cytotoxicity” value was inactive: 21.3%.
In the case of `COc1ccc(NC(=O)CSC2=Nc3ccccc3C3=NC(Cc4ccccc4)C(=O)N23)cc1Cl` (stereo not drawn), the “activity change, negative = cytotoxicity” value was inactive: -24.3%.
Still for that read-out and setting: under `CN(Cc1ccccc1)C(=O)Cn1ncc2c3ccccc3n(Cc3cccc(Cl)c3)c2c1=O` stands inactive: 3.59%.
Regarding `COc1cc(CCC(=O)NCc2ccc3c(c2)CCN3C(=O)c2cccc(C)c2)cc(OC)c1OC`, the “activity change, negative = cytotoxicity” value is inactive: 0.0243%.
As for `CCc1cnc2c(c1SCC(=O)NCc1ccccc1)c(=O)n(C)c(=O)n2C`, the “activity change, negative = cytotoxicity” value was inactive: 8.49%.
For `Cc1cc(C)c2oc(-c3cccc(NC(=O)c4cc5ccccc5o4)c3)nc2c1`, the “activity change, negative = cytotoxicity” value was inactive: -2.39%.
Regarding `Cc1ccc2c(CC(=O)Nc3c(C(=O)Nc4cccc(Cl)c4)oc4ccccc34)coc2c1C`, the “activity change, negative = cytotoxicity” value is inactive: 0.2%.
Turning to `COc1ccc2cc(CNc3ccccc3)c(=O)n(CC(=O)Nc3ccc(C)cc3C)c2c1`, the “activity change, negative = cytotoxicity” value is inactive: -11.3%.
On the same count and under the same terms, under `Cc1ccc(NC(=O)Cn2c(=O)c(C(F)(F)F)nc3ccccc32)c(C)c1` stands inactive: 26.7%; under `CCCCN(CC)CCNC(=O)Cn1c(=O)c2cccn2c2cccnc21`, inactive: -3.08%; under `COc1ccc(C(CC(=O)Nc2ccc(OC)c(OC)c2)N2Cc3ccccc3C2=O)cc1` (stereo not drawn), inactive: 8.38%.
In the case of `COc1ccc(OC)c(CCNC(=O)c2ccc3[nH]c(C)c(C)c3c2)c1`, the “activity change, negative = cytotoxicity” value is inactive: -10.6%.
With `COCCn1c(C)cc(O)c(C(c2ccccc2OC)N2CCCCC2)c1=O` (stereo not drawn), the “activity change, negative = cytotoxicity” value was inactive: -0.819%.
Still for that read-out and setting: in the case of `Cc1ccc(C)c(N2CCN(C(=O)c3cccn3-c3nnc(N4CCCCC4)s3)CC2)c1` it was inactive: -3.39%.
Turning to `COc1cccc(CNC(=O)c2cc3c(=O)n(C)c4ccccc4c3n2C)c1`, the “activity change, negative = cytotoxicity” value is inactive: 13.8%.
Regarding `CCN1CCN(CCCNC(=O)c2cc3c(s2)-c2c(C)cccc2OC3)CC1`, the Potency is active: 25.1 µM.
With `O=S(=O)(c1ccc(-c2cc(C(F)(F)F)on2)s1)N1CCN(c2cccc(Cl)c2)CC1`, the “activity change, negative = cytotoxicity” value is inactive: 6.31%.
For the molecule `CCc1nc2ccc(C(=O)NCCc3ccc(OC)c(OC)c3)cc2nc1CC`, the “activity change, negative = cytotoxicity” value is inactive: -4.07%.
Turning to `CCOc1ccccc1CNC(=O)c1[nH]c2ccccc2c1Sc1ccccc1`, the “activity change, negative = cytotoxicity” value was inactive: 1.47%.
Same read-out and setting: in the case of `CCn1ccc2cc(S(=O)(=O)N3CCC(C(=O)NCCOC)CC3)ccc21` it was inactive: -1.73%.
Take `Cc1nn2c(C(F)(F)F)cc(-c3ccc(OC(C)C)cc3)nc2c1C#N`: the “activity change, negative = cytotoxicity” value is inactive: 2.25%.
Same read-out and setting: under `Cc1ccccc1Nc1ncnc2c1c(-c1ccccc1)cn2-c1ccc(F)cc1` stands inactive: 11.5%.
For `O=C(CCc1nc2cccnc2n1Cc1ccccc1)NCc1cccc(Cl)c1`, the “activity change, negative = cytotoxicity” value is inactive: -3.18%.
With `OCc1cnc(SCc2cccc(F)c2)n1Cc1ccc(F)cc1`, the “activity change, negative = cytotoxicity” value was inactive: -16.1%.
Regarding `Cc1c(C(=O)N2CCCC2)oc2c1-c1nn(CC(=O)NCc3cccc(F)c3)cc1CC2`, the “activity change, negative = cytotoxicity” value was inactive: -1.42%.
On to `CN1c2ccc(Cl)cc2-c2nc(SCC(=O)Nc3cc(F)ccc3F)ncc2S1(=O)=O`, for which the “activity change, negative = cytotoxicity” value was inactive: -19.4%.
In the case of `COC(=O)NNC(=O)C1CCC(C)CC1` (stereo not drawn), the “activity change, negative = cytotoxicity” value is inactive: -1.86%.
The same measure, in the same setting: in the case of `Cc1cccc(N2C(=O)CS(=O)(=O)C23C(=O)N(C)c2ccccc23)c1` (stereo not drawn) it was inactive: -2.27%.
The same measure, in the same setting: under `Cc1ncc(COC(=O)C(C)C)c2cc(C(=O)Nc3ccccc3C(F)(F)F)c(=O)oc12` stands inactive: -0.254%; under `CCCCn1c(CNC(=O)C23CC4CC(CC(C4)C2)C3)nnc1SCC(=O)Nc1ccccc1`, inactive: -5.92%.
For the molecule `O=C(O)Cn1nc(N2CCN(c3ccc(F)cc3)CC2)ccc1=O`, the “activity change, negative = cytotoxicity” value was inactive: 7.7%.
In the case of `COC(=O)c1ccccc1NC(=O)c1ccc2c(c1)CCN2S(=O)(=O)c1ccc(C)cc1`, the “activity change, negative = cytotoxicity” value was inactive: 7.7%.
Take `O=c1cc(-c2ccccc2)n2c(SCc3ccc([N+](=O)[O-])cc3)nnc2[nH]1`: the “activity change, negative = cytotoxicity” value is inactive: 10.9%.
For `CC1=C(C(N)=O)C(c2cccc(F)c2)n2nc(SCc3ccccc3)nc2N1` (stereo not drawn), the “activity change, negative = cytotoxicity” value was inactive: 2.32%.
On to `CCCCc1ccc(C(=O)Nc2ccc3nc(N(CC)CC)cc(C)c3c2)cc1`, for which the “activity change, negative = cytotoxicity” value is inactive: 15.9%.
On the same count and under the same terms, in the case of `COc1ccc2cc(CNc3ccc(C)cc3)c(=O)n(CC(=O)Nc3ccc(OC)c(Cl)c3)c2c1` it was inactive: 18.1%.
`O=C(CCCn1c(=O)c2sccc2n(Cc2ccc(F)cc2Cl)c1=O)NCc1ccc2c(c1)OCO2`: the “activity change, negative = cytotoxicity” value was inactive: 1.44%.
In the case of `COc1cc(OC)c(NC(=O)C2=C(C)C(=O)OC23CCCCC3)cc1Cl`, the “activity change, negative = cytotoxicity” value is inactive: -6.19%.
Still for that read-out and setting: under `COc1ccccc1CNC(=O)c1cc(Sc2cccc(Cl)c2)nc2ccccc12` stands inactive: 8.1%.
